The record followed here is PubChem BioAssay (NCI).

Some test systems named below: HL-60(TB) leukemia; MOLT-4 leukemia; NCI-H522 lung; PC-3 prostate; SR leukemia.
What all share (assay): DTP human tumour cell line panel, 48 h

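Growth conditions: 96-well plates. Treatment: test compound, 48 hours, 5 concentrations. Analysis: linear interpolation between bracketing concentrations; unreached endpoints set to highest concentration. TGI denotes the concentration required for complete inhibition of growth.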 For part of its entries the source gives two or more results. They are shown here; other results are not. The source may hold further records. A record mostly stands for its own series of concentrations, which the source does not state; a value can be the end of its range.

Turning to `O=C(NNc1nc2cc(F)c(F)cc2n2cccc12)c1cccnn1`, the TGI (as a rule, the concentration at which net growth stops) is 8.37 µM and 828 nM in the assay on HL-60(TB) leukemia; 30 µM and 963 nM in the assay with MOLT-4 leukemia; 30 µM and 1.29 µM in the assay on NCI-H522 lung; 8.04 µM and > 100 µM in the assay with PC-3 prostate; 30 µM and 1.29 µM in the assay with SR leukemia.
